Measured values as given in US20250215105A1, “ANTI-CD39 ANTIBODY” (BrightPath Biotherapeutics Co., Ltd., priority 2022, published 2025).

Test system: human lung cancer cell line NCI-H292
Test: anti-tumor activity: NCI-H292 growth with stimulated PBMCs and ATP (IncuCyte)
Format: cell-based
Description: The human lung cancer cell line NCI-H292 having red fluorescent protein (RFP) was seeded on a 96-well plate and cultured overnight. The next day, after removal of the medium, IL-2 (Miltenyi, 130-097-745) at a final concentration of 30 IU as suspended in X-VIVO-15™ medium (Lonza, 04-418Q) and an anti-human CD39 antibody or isotype control antibody at a final concentration of 0.3 to 100 μg/mL were added and the mixture was incubated at 37° C. for 30 minutes. Then, PBMCs from healthy volunteers stimulated with Dynabeads™ Human T-Activator CD3/CD28 (VERITAS, DB11131) for 10 days were added at an E/T ratio of 2 and the mixture was incubated at 37° C. for 30 minutes. […] This made it possible to evaluate the anti-tumor activity of the antibody due to its ability to promote the cytotoxic activity of PBMCs.

[1] = ATP 250 μM, antibody 10 μg/ml (FIG. 32)

B1: I-394h4: anti-CD39 antibody with variable regions of I-394 of WO2018/167267, IgG4 constant region (antibody, listed as Mus musculus, V domains shown)
VH: EVQLQQSGPELVKPGASVKMSCKASGYTFTDYNMHWVKQSHGRTLEWIGYIVPLNGGSTFNQKFKGRATLTVNTSSRTAYMELRSLTSEDSAAYYCARGGTRFAYWGQGTLVTVSA
VL: DIVLTQSPASLAVSLGQRATISCRASESVDNFGVSFMYWFQQKPGQPPNLLIYGASNQGSGVPARFRGSGSGTDFSLNIHPMEADDTAMYFCQQTKEVPYTFGGGTKLEIK
modifications: IgG4 constant regions
notes: anti-CD39 antibody with variable regions of I-394 of WO2018/167267, IgG4 constant region
ATP 250 μM (FIG. 31)
  overall difference in cancer cell growth compared to isotype control: small
  time after treatment at which a difference to the isotype control starts to appear: about 50 hours
[1]
  overall difference in cancer cell growth compared to isotype control: only a slight difference
  time after treatment at which a difference to the isotype control starts to appear: about 80 hours
